According to PubChem BioAssay AID720709 (National Center for Advancing Translational Sciences (NCATS), 2013):
Screen size: about 360,000 compounds; about 520 (0.14%) were called active. Inconclusive results, whose numbers are uncertain, are shown with a selection of clear calls. The call rests on the fitted dose curve; in most records, active means well fitted inhibition curve with a large enough effect; inconclusive means small, poorly fitted or top-dose-only effect; inactive means no such curve, though single readings can be large or run the other way. Potencies of inconclusive entries are left out as doubtful fits.

The compounds below were run against Rap guanine nucleotide exchange factor 3 (Homo sapiens) (UniProt O95398) (assay: qHTS for Antagonist of cAMP-regulated guanine nucleotide exchange factor 3 (EPAC1): primary screen). Conditions: EPAC1 GEF assay, Rap1b-BODIPY-GDP exchange fluorescence; activity change, negative = inhibition: at 115 µM (top of the series).
Further: nearly all actives have a fitted effect of over 50% in size.
Potency means the concentration at half of the fitted maximal effect; tags describe the fitted curve by direction and shape.
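Wherever activity change, negative = inhibition is given: plate controls were vehicle for no effect and positive control for full effect.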

Chain of UniProt O95398 (O95398 whole entry, looked up): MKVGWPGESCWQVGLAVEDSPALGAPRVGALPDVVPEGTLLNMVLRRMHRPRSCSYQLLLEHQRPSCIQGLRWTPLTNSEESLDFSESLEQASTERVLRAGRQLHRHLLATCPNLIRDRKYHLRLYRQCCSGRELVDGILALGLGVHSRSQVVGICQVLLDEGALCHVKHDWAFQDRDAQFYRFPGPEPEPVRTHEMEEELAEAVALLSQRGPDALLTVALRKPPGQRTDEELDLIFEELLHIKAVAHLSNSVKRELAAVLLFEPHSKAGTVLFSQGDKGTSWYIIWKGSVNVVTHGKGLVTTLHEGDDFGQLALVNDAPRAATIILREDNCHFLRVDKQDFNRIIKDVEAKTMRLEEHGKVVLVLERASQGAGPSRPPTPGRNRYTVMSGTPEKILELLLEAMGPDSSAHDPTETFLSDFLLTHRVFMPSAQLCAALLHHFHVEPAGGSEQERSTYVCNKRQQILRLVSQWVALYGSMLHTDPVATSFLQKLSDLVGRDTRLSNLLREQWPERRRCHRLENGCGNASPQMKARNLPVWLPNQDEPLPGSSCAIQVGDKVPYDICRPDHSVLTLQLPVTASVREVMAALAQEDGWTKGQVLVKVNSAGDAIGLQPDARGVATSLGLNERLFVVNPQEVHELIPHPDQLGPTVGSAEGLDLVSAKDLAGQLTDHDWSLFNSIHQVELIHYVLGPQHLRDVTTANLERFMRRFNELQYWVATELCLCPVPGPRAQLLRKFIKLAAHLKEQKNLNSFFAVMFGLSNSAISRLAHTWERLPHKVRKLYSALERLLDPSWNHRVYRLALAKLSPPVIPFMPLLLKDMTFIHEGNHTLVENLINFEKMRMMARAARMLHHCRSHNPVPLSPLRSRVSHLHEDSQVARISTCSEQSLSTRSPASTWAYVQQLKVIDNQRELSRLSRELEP

SMILES	Potency	activity change, negative = inhibition
CCOC(=O)N1C(=O)NC(=O)C1c1ccc(OC)cc1 (stereo not drawn)	inactive	–
O=[N+]([O-])c1ccc(O)c(N=Cc2sc3ccccc3c2O)c1	inconclusive [inhibitor, partial curve, poor fit]	–
CCc1cccc(C)c1NC(=S)NCc1ccccc1	–	inconclusive: -10.4% [inhibitor]
Cc1cccc(Nc2nc(N)c([N+](=O)[O-])c(NCc3ccco3)n2)c1	inconclusive [inhibitor, partial curve, poor fit]	–
COc1ccccc1Nc1cc2cc(Br)ccc2c(=O)[nH]1	inconclusive [inhibitor, single point]	–
OCCN1CCN(c2nc(-c3ccccc3)c3cc(Cl)ccc3n2)CC1	inconclusive [inhibitor, partial curve]	–
COc1cccc(C(C(=O)NC2CCCCC2)N(C(=O)c2ccco2)c2ccccc2OC)c1 (stereo not drawn)	inactive	–
O=S(=O)(Nc1ccc(-c2csc(-c3ccccc3)n2)cc1)c1ccc(F)cc1	inactive	–
O=[N+]([O-])c1ccc(O)c(/C=N/n2cnnc2)c1	inconclusive [inhibitor, single point]	–
Cc1ccccc1N(C(=O)CNC(=O)c1cccs1)C(C(=O)NC1CCCC1)c1ccncc1 (stereo not drawn)	inconclusive [inhibitor, single point]	–
C=CCn1c(CCc2cc(C(C)(C)C)c(O)c(C(C)(C)C)c2)n[nH]c1=S	inconclusive [inhibitor, partial curve, poor fit]	–
CCOc1ccccc1NC(=O)CSc1nnc(-c2cccnc2)o1	inconclusive [inhibitor, full curve, poor fit]	–
CC(C)c1nc(CNC(=O)C2CCC(=O)N(Cc3ccc(Cl)cc3)C2)no1 (stereo not drawn)	inconclusive [inhibitor, full curve, poor fit]	–
CCOC(=O)C1CCN(C(=O)Nc2ccc3nc(-c4ccco4)c(-c4ccco4)nc3c2)CC1	inconclusive [inhibitor, partial curve]	–
COC1=CC(=O)c2c(ccc3ncnc(N)c23)C1=O	active: 39.8 µM	–
N#C/C(=C\c1ccc(Oc2ccc(C(F)(F)F)cc2[N+](=O)[O-])cc1)c1nc2ccccc2[nH]1	inactive	–
O=C(CSc1nnc(SCc2ccccc2)s1)N/N=C/C=C\c1ccco1	inconclusive [inhibitor, single point]	–
O=C(Nc1ccc(-c2ccc([N+](=O)[O-])cc2)cc1)c1ccccc1F	inactive	–
COc1ccc(CCNC(=S)Nc2ccc(C(C)C)cc2)cc1	inactive	–
O=C(O)c1cccc(C(=O)c2cccc3ccccc23)c1	inactive	–
COc1c(C)cc(C(O)c2ncc(-c3ccccc3C(F)(F)F)[nH]2)cc1C (stereo not drawn)	inconclusive [inhibitor, partial curve]	–
COc1ccccc1/C=C/C=c1\sc2nc(=O)c(Cc3ccccc3)nn2c1=O	active: 35.5 µM	–

SMILES	Potency	activity change, negative = inhibition
Cc1ccc([C@@H]2CC=C(C(=O)O)[C@H](c3ccc(Cl)cc3)N2S(=O)(=O)c2ccccc2C)cc1	inconclusive [inhibitor, full curve, poor fit]	–
Cc1ccc2c(c1)N(S(=O)(=O)c1cc(-c3cc(C)no3)ccc1C)CCO2	–	inconclusive: -22.3% [inhibitor]
COc1ccc(CCN=C2SCC(=O)N2Cc2ccccc2)cc1OC	inconclusive [inhibitor, single point]	–
COc1ccccc1NS(=O)(=O)c1cc(NC(=S)NCCN2CCOCC2)ccc1N1CCOCC1	inactive	–
Cc1cccc(-c2n[nH]nc2C2=CC(=O)CC(C)(C)C2)c1	inactive	–
O=[N+]([O-])c1ccc(S(=O)(=O)c2ccccc2)nc1	inconclusive [inhibitor, single point]	–
CC(Sc1ncnc2ccccc12)C(=O)Nc1ccc2c(c1)OCCO2 (stereo not drawn)	inconclusive [inhibitor, full curve, poor fit]	–
Cc1c(Cc2ccccc2)sc(NC(=O)C(C)(C)C)c1C(N)=O	inconclusive [inhibitor, single point]	–
CCOC(=O)c1sc2nc(OCc3cccnc3)cc(C)c2c1N	inconclusive [inhibitor, partial curve]	–
CCOC(=O)c1ccc(NC(=S)Nc2ccccc2)cc1	inactive	–
Nc1c(C(=O)Nc2ccccc2F)sc2nc(Cc3ccccc3)cc(C(F)(F)F)c12	inconclusive [inhibitor, single point]	–
COC(=O)C1=C(C)NC2=C(C(=O)c3ccccc32)C1c1ccc(-c2ccc(C(=O)O)cc2)o1 (stereo not drawn)	inconclusive [inhibitor, partial curve]	–
COc1cccc(-c2csc(N3CCN(CC(=O)NNC(=O)c4ccco4)CC3)n2)c1	inconclusive [inhibitor, single point]	–
C[C@@H]1CN([C@H](C)CO)C(=O)CCCn2cc(nn2)CO[C@H]1CN(C)C(=O)c1ccccc1	inconclusive [inhibitor, full curve, poor fit]	–
CC(C)OC(=O)C(C(=O)C(F)(F)F)c1cc(NS(=O)(=O)c2ccc3ccccc3c2)c2ccccc2c1O (stereo not drawn)	inconclusive [inhibitor, partial curve, poor fit]	–
O=C(Nc1ccncc1)C1c2ccccc2Oc2ccccc21	inconclusive [inhibitor, single point]	–
Cc1ccc(OCC(O)CN2CCN(CC(O)COc3ccc(C)cc3)CC2)cc1 (stereo not drawn)	inactive	–
Cc1c(C(=O)NCc2ccc(S(N)(=O)=O)cc2)oc2ccc(Cl)cc12	–	inconclusive: -12% [inhibitor]
COc1ccc(-n2c(=O)c3c(C)c(C)sc3n(Cc3ccc(F)cc3)c2=O)c(OC)c1	inconclusive [inhibitor, partial curve]	–
O/N=C(/CCc1ccccc1)c1ccc2c(c1)OCCO2	inconclusive [inhibitor, partial curve]	–
CC(C)(C)c1ccc(/C=N/OCC(=O)NCc2ccc(F)cc2)cc1	inconclusive [inhibitor, full curve, poor fit]	–
